Substrate in this test: I domain-GST, recombinant GST fusion protein containing amino acids 127-340 of the human VLA-1 α1 subunit (human) (UniProt P56199)
Put plainly: SPR, mAb captured on anti-human IgG, I domain-GST in solution, 1 mM Mg2+. (In general: SPR reads the build-up and loss of mass on a sensor chip optically.)

UniProt P56199, sequence (P56199 151-364 limits assumed, form in doubt): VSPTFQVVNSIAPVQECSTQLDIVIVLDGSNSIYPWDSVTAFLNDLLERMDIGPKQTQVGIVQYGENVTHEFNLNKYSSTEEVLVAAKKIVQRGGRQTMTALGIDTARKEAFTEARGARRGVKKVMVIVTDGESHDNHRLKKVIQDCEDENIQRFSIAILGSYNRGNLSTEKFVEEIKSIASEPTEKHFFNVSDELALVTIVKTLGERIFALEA

B1: 7.46 (antibody, V domains shown)
VH: QVQLQESGPGLVKPSETLSLTCTVSGGSFSSYYWSWIRQPAGKGLEWIGRIYTSGSTNYNPSLKSRVTMSVDTSKNQFSLKLSSVTAADTAVYYCAREGYDFWSGYYNYYYGMDVWGQGTTVTVS
VL: [letters of about 100 residues left out]
As for B1, the Kd is 2.55 nM, the koff turned out to be 9.95e-05 s⁻¹ and the kon is 39000 M⁻¹ s⁻¹.

The Kd is a measure of binding affinity in units of concentration. A word on the koff: it is the rate constant with which the complex falls apart. The kon is a measure of how fast the partners come together.

The record behind these values is patent US20060286112A1.
